This is one part of the list. At the low end of the ranking, values are background and their order means little.
These sequences were tested against T1, ELK1 (UniProt P19419) (assay: custom PBM). Settings: custom protein-binding microarray; buffer, salt, pH and temperature not stated; high values mean tight binding; double strand, one strand shown.
T1 sequence: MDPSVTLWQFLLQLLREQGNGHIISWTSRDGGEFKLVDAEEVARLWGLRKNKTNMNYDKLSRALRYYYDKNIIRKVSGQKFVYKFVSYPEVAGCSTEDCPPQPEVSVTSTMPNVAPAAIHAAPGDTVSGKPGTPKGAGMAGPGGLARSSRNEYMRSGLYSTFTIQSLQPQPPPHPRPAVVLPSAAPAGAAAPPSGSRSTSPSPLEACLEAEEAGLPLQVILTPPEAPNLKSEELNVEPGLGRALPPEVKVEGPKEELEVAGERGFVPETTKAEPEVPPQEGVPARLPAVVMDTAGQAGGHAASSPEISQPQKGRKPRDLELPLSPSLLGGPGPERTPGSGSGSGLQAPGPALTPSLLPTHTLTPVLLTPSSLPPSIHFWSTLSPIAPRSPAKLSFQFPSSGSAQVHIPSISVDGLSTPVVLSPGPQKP
In the case of “TACTGACTTATATATCCGAATGCACATGAATAGACCGTCTTGATTCGCTTGACGCTGCTG”, the binding signal (log fluorescence intensity) is reported as 9.23. “GATGCTGCGGTGCATACCCCACCGGATGTGACCCCGGTCTTGATTCGCTTGACGCTGCTG” was tested, and the binding signal (log fluorescence intensity) was 10.2. In the case of “CTGGGACTTGACCCAACTCTGCCACGTGGGTCGTCTGTCTTGATTCGCTTGACGCTGCTG”, the binding signal (log fluorescence intensity) is reported as 9.03. “CAGCATAGGACTTCCTCCCTGAAGCAATTGATAACCGTCTTGATTCGCTTGACGCTGCTG” was tested, and the binding signal (log fluorescence intensity) was 12.2. “CAGCATAGGACTTCTTCCCCGAAGCAATTGATAACCGTCTTGATTCGCTTGACGCTGCTG” was tested, and the binding signal (log fluorescence intensity) was 9.11. Work on “CACAATTTTTACAGTAATGTAGCACGCGTCACTCCTGTCTTGATTCGCTTGACGCTGCTG” yielded a binding signal (log fluorescence intensity) of 8.84. “TGTCGGGTAAGGGTATGTAGATCACGTGAATGAAAAGTCTTGATTCGCTTGACGCTGCTG” gave a binding signal (log fluorescence intensity) of 8.76. In the case of “GTGTTTAGGATCCCATCCAACACACGTGTTAAAATGGTCTTGATTCGCTTGACGCTGCTG”, the binding signal (log fluorescence intensity) is reported as 8.92. In the case of “TGTCGGGTAAGGCAATGTAGATCACGTGAATGAAAAGTCTTGATTCGCTTGACGCTGCTG”, the binding signal (log fluorescence intensity) is reported as 8.8. Sequence “TCCGGCTACCAGGTCCACCCACTTCAGGCCTTGTAGGTCTTGATTCGCTTGACGCTGCTG” has a binding signal (log fluorescence intensity) of 8.9. Sequence “TACTGACCTATATATGCGAATGCACATGAATAGACCGTCTTGATTCGCTTGACGCTGCTG” has a binding signal (log fluorescence intensity) of 8.82. With “TAAAGGGAAGACGGTTGTGGTAGTTCCGGGTAATAAGTCTTGATTCGCTTGACGCTGCTG” the binding signal (log fluorescence intensity) was 11.3. In the case of “CAGCATAGGAATTCTTCCCTGAAGCAATTGATAACCGTCTTGATTCGCTTGACGCTGCTG”, the binding signal (log fluorescence intensity) is reported as 8.81. Sequence “CTGGGACTTGACCCAACTCTGCCACGTGGGTCGTGTGTCTTGATTCGCTTGACGCTGCTG” has a binding signal (log fluorescence intensity) of 8.82. “GGTGCTGCGGTGCATACCCCACCGGATGTGACCCCGGTCTTGATTCGCTTGACGCTGCTG” gave a binding signal (log fluorescence intensity) of 10.3. “GGAAAAAGGCCCAGGGTAACAACGGAAGTGGGCTTAGTCTTGATTCGCTTGACGCTGCTG” was tested, and the binding signal (log fluorescence intensity) was 10. “TGTCGGGTAAGGGAATGTAGATCCCGTGAATGAAAAGTCTTGATTCGCTTGACGCTGCTG” gave a binding signal (log fluorescence intensity) of 8.99. In the case of “TACTGACTTATATATGCGATTGCACATGAATAGACCGTCTTGATTCGCTTGACGCTGCTG”, the binding signal (log fluorescence intensity) is reported as 8.96. With “GATTAATTTCGGCCCTTATTCGCACGTGCCATAACAGTCTTGATTCGCTTGACGCTGCTG” the binding signal (log fluorescence intensity) was 9.02. With “TGTCGGGTAAGGGAATGTAGATCACGTGACTGAAAAGTCTTGATTCGCTTGACGCTGCTG” the binding signal (log fluorescence intensity) was 8.96. In the case of “TAAAGGGTAGACGGTTGTGGTAGTTCCGGGTATTAAGTCTTGATTCGCTTGACGCTGCTG”, the binding signal (log fluorescence intensity) is reported as 11. With “TGAAGGGAAGACGGTTGTGGTAGTTCCGGGTATTAAGTCTTGATTCGCTTGACGCTGCTG” the binding signal (log fluorescence intensity) was 11. Work on “TGTCGCGTAAGGGAATGTAGATCACGTGAATGAAAAGTCTTGATTCGCTTGACGCTGCTG” yielded a binding signal (log fluorescence intensity) of 8.89.

Reference: article PMC6602471
